This is an account of results in PubChem BioAssay AID2202238 (Ras Initiative Chemistry Research Team, Frederick National …, 2025).

The other results are listed elsewhere or left out. These are further read-outs of the screen, such as a control signal, another cell line or another target. No call is given for them.

For the assay, the target named is GTPase KRas (Homo sapiens) (UniProt P01116). Kind of assay: Covalent labelling of cysteine mutants by fragments, read by mass spectrometry (AID 2202238). On the set-up: protein at 5 µM with 500 µM competing thiol for 1.5 h. The note with it: KRAS G12D cysteine mutants, disulfide tethering, MALDI-TOF labeling, stronger effect = higher value, fragment at 500 µM.
The mark [1] stands for this setting: measured here: G60C mutant labeling.
Where [2] appears, read: measured here: G75C mutant labeling.
Setting [3] is: measured here: H94C mutant labeling.
[4] abbreviates: measured here: I36C mutant labeling.
The mark [5] stands for this setting: measured here: L120C mutant labeling.
The mark [6] stands for this setting: measured here: M67C mutant labeling.
Setting [7] is: measured here: M72C mutant labeling.
Where [8] appears, read: measured here: N26C mutant labeling.
Setting [9] is: measured here: N86C mutant labeling.
[10] abbreviates: measured here: P121C mutant labeling.
[11] abbreviates: measured here: S122C mutant labeling.
Setting [12] is: measured here: S136C mutant labeling.

UniProt P01116, sequence (P01116 whole entry, looked up, the tested form may be a part): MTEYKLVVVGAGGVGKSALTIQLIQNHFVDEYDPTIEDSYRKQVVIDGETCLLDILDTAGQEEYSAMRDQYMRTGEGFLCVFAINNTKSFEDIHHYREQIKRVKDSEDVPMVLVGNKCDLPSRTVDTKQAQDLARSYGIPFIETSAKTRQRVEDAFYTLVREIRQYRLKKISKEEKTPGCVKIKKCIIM

On to `CCCOc1nc2ccccc2cc1C(=O)NCCS`, for which the percent labeling is, setting by setting: under setting [1], 25.8%; under setting [2], 11.7%; under setting [3], 17.8%; under setting [4], 7.6%; under setting [5], 14%; under setting [6], 10.3%. The percent labeling under setting [7] was 34.1%; the percent labeling under setting [8] came out at 28%; the percent labeling under setting [9] amounted to 9.2%; the percent labeling under setting [10] is 14.7%; the percent labeling under setting [11] came to 10%; the percent labeling under setting [12] amounted to 17.4%.
As to `Cc1cccc(NC(=O)N2CCCC(C(=O)NCCS)C2)c1` (stereo not drawn), the percent labeling by setting is: under setting [1], 19.5%; under setting [2], 10.3%; under setting [3], 19.9%; under setting [4], 14.8%; under setting [5], 19.1%; under setting [6], 15.8%. Besides, the percent labeling amounted to 12.1% under setting [7]; 23.2% under setting [8]; 12% under setting [9]; 15.9% under setting [10]; 10% under setting [11]; 20.1% under setting [12].
As for `O=C(NCCS)c1ccc(Oc2cccc(Cl)c2Cl)cc1`, the percent labeling is, setting by setting: under setting [1], 45.6%; under setting [2], 21.4%; under setting [3], 13.1%; under setting [4], 23.2%; under setting [5], 16.8%; under setting [6], 54.7%. The molecule also gave a percent labeling under setting [7] of 63.4%; a percent labeling under setting [8] of 25.5%; a percent labeling under setting [9] of 9.5%; a percent labeling under setting [10] of 13.1%; a percent labeling under setting [11] of 0%; a percent labeling under setting [12] of 21.1%.
With `O=C(NCCS)c1cc(OCC(F)(F)F)c2ccccc2n1`, the percent labeling stood at 24.2% under setting [1]; 9.4% under setting [2]; 12.4% under setting [3]; 7% under setting [4]; 8.4% under setting [5]; 0% under setting [6]. This molecule displayed a percent labeling under setting [7] of 15.7%; a percent labeling under setting [8] of 13.9%; a percent labeling under setting [9] of 0%; a percent labeling under setting [10] of 8.3%; a percent labeling under setting [11] of 3%; a percent labeling under setting [12] of 0%.
With `Cc1cc(C)c2cc(C(=O)NCCS)sc2n1`, the percent labeling is, setting by setting: under setting [1], 20.8%; under setting [2], 16.1%; under setting [3], 11.1%; under setting [4], 8.3%; under setting [5], 11.3%; under setting [6], 12.2%. Further, the percent labeling by setting is: under setting [7], 33%; under setting [8], 30.8%; under setting [9], 14.7%; under setting [10], 8.1%; under setting [11], 8.9%; under setting [12], 21.2%.
Turning to `O=C(CCc1nc2cc(Br)ccc2s1)NCCS`, the percent labeling reads like this: under setting [1], 22.1%; under setting [2], 5.4%; under setting [3], 17.6%; under setting [4], 5.2%; under setting [5], 9%; under setting [6], 7.1%. The percent labeling under setting [7] is 13.6%; the percent labeling under setting [8] stood at 17.7%; the percent labeling under setting [9] came out at 5.2%; the percent labeling under setting [10] came to 6.2%; the percent labeling under setting [11] was 7.2%; the percent labeling under setting [12] came out at 9%.
`CN(C)CCOc1ccc(NC(=O)CCS)c(F)c1` registered a percent labeling under setting [2] of 15.5%; a percent labeling under setting [3] of 39.4%; a percent labeling under setting [4] of 53%; a percent labeling under setting [5] of 35.7%; a percent labeling under setting [6] of 49.6%; a percent labeling under setting [7] of 40.4%. The percent labeling is 62.2% under setting [9], 33.2% under setting [10], 35.7% under setting [11] and 52.7% under setting [12].
Turning to `CC(C)(C)OC(=O)NCc1nc(C2CCN(C(=O)CCS)CC2)n[nH]1`, the percent labeling reads like this: under setting [2], 12.9%; under setting [3], 20.1%; under setting [4], 0%; under setting [5], 25.4%; under setting [6], 27.6%; under setting [7], 17%. Moreover, the percent labeling runs as follows: under setting [9], 26.3%; under setting [10], 25.3%; under setting [11], 29.1%; under setting [12], 43.5%.
Consider `N#Cc1c(N)sc2c1CCN(C(=O)CCS)C2`, for which the percent labeling runs as follows: under setting [2], 6.5%; under setting [3], 12.3%; under setting [4], 18.5%; under setting [5], 13.2%; under setting [6], 17.1%; under setting [7], 11.6%. The percent labeling worked out at 8.3% under setting [9], 16.9% under setting [10], 16.9% under setting [11] and 28.2% under setting [12].
On to `Cc1ncc(NC(=O)CCS)cc1C(N)=O`, for which the percent labeling worked out at 23.2% under setting [2]; 23.4% under setting [3]; 35.5% under setting [4]; 25.8% under setting [5]; 31% under setting [6]; 25.1% under setting [7]. In addition, the percent labeling amounted to 26.7% under setting [9], 31.1% under setting [10], 33.6% under setting [11] and 44.8% under setting [12].
Turning to `Cc1nn(Cc2ccc(Cl)cc2)c2sc(C(=O)NCCS)cc12`, the percent labeling reads like this: under setting [1], 30.2%; under setting [2], 14%; under setting [3], 16%; under setting [4], 25.8%; under setting [5], 13%; under setting [6], 15.6%. This molecule showed a percent labeling under setting [7] of 62.1%; a percent labeling under setting [8] of 26%; a percent labeling under setting [9] of 3.2%; a percent labeling under setting [10] of 7%; a percent labeling under setting [11] of 0%; a percent labeling under setting [12] of 46.1%.
As to `O=C(Cc1ccc2c(c1)OC(F)(F)O2)NCCS`, the percent labeling is, setting by setting: under setting [1], 42.9%; under setting [2], 15.4%; under setting [3], 28.5%; under setting [4], 16.2%; under setting [5], 26.6%; under setting [6], 19.5%. The percent labeling under setting [7] is 26%; the percent labeling under setting [8] turned out to be 32.2%; the percent labeling under setting [9] came to 16.8%; the percent labeling under setting [10] worked out at 20%; the percent labeling under setting [11] was 19.6%; the percent labeling under setting [12] came out at 26.3%.
Consider `O=C(CCS)NC1c2ccccc2CC12CCOCC2` (stereo not drawn), for which the percent labeling worked out at 12.3% under setting [2]; 40.4% under setting [3]; 43% under setting [4]; 29.3% under setting [5]; 43.4% under setting [6]; 27.2% under setting [7]. This molecule registered a percent labeling under setting [9] of 31.8%, a percent labeling under setting [10] of 36.1%, a percent labeling under setting [11] of 36% and a percent labeling under setting [12] of 67.4%.
Regarding `O=C(NCCS)c1coc(C2CCCCC2)n1`, the percent labeling was found to be 22.2% under setting [1]; 16.6% under setting [2]; 16.7% under setting [3]; 18.8% under setting [4]; 24.8% under setting [5]; 13.7% under setting [6]. The percent labeling runs as follows: under setting [7], 40.9%; under setting [8], 25.5%; under setting [9], 10.3%; under setting [10], 13.9%; under setting [11], 13%; under setting [12], 40%.
Take `CC(CC(=O)NCCS)NC(=O)C1CCCC1` (stereo not drawn): the percent labeling under setting [1] was determined as 27.7%; the percent labeling under setting [2] was determined as 11.6%; the percent labeling under setting [3] is 29.6%; the percent labeling under setting [4] was determined as 23.4%; the percent labeling under setting [5] is 34.8%; the percent labeling under setting [6] is 26.9%. Besides, the percent labeling runs as follows: under setting [7], 16.8%; under setting [8], 29.4%; under setting [9], 25.6%; under setting [10], 34.8%; under setting [11], 33.8%; under setting [12], 42.1%.
As for `Cc1cc(C)c(C(=O)NC2CCN(C(=O)CCS)CC2)o1`, the percent labeling runs as follows: under setting [2], 12.7%; under setting [3], 31.2%; under setting [4], 39.2%; under setting [5], 30.9%; under setting [6], 35.4%; under setting [7], 23.8%. The percent labeling came to 25.4% under setting [9], 37.6% under setting [10], 38.2% under setting [11] and 50.6% under setting [12].
On to `COc1ccc(C(=O)NC(C(=O)NCCS)c2ccccc2)cc1` (stereo not drawn), for which the percent labeling is, setting by setting: under setting [1], 36%; under setting [2], 10.3%; under setting [3], 16.4%; under setting [4], 9.9%; under setting [5], 27.2%; under setting [6], 13%. The percent labeling runs as follows: under setting [7], 40.4%; under setting [8], 23.1%; under setting [9], 9.2%; under setting [10], 13.9%; under setting [11], 9.5%; under setting [12], 39.5%.
On to `CCCCN(C)c1ncc(Cl)c(C(=O)NCCS)n1`, for which the percent labeling reads like this: under setting [1], 29.9%; under setting [2], 13.2%; under setting [3], 16.8%; under setting [4], 10%; under setting [5], 17.5%; under setting [6], 13.6%. The molecule further registered a percent labeling under setting [7] of 41.5%; a percent labeling under setting [8] of 25.2%; a percent labeling under setting [9] of 8.8%; a percent labeling under setting [10] of 15.9%; a percent labeling under setting [11] of 9.5%; a percent labeling under setting [12] of 17.1%.
The molecule `CCOC(=O)c1n[nH]c2c1CN(C(=O)CCS)CC2` gave a percent labeling under setting [2] of 13%; a percent labeling under setting [3] of 35.8%; a percent labeling under setting [4] of 34.8%; a percent labeling under setting [5] of 32.1%; a percent labeling under setting [6] of 37.5%; a percent labeling under setting [7] of 29.1%. In addition, the percent labeling runs as follows: under setting [9], 20.9%; under setting [10], 30.6%; under setting [11], 35.1%; under setting [12], 62.4%.
Take `O=C(Cn1nc(C(F)F)cc1C(F)F)NCCS`: the percent labeling runs as follows: under setting [1], 58.9%; under setting [2], 17.7%; under setting [3], 37.3%; under setting [4], 28.7%; under setting [5], 49.7%; under setting [6], 32.9%. Further, the percent labeling by setting is: under setting [7], 24.4%; under setting [8], 34.9%; under setting [9], 36.9%; under setting [10], 35.7%; under setting [11], 33.4%; under setting [12], 36.5%.
On to `Cc1cc(=O)c(C(=O)NCCS)nn1-c1ccccc1F`, for which the percent labeling is, setting by setting: under setting [1], 45.2%; under setting [2], 20.6%; under setting [3], 38.2%; under setting [4], 33.1%; under setting [5], 53.5%; under setting [6], 40.2%. The percent labeling amounted to 48.3% under setting [7]; 41.6% under setting [8]; 26% under setting [9]; 28.6% under setting [10]; 29.2% under setting [11]; 72.7% under setting [12].
On to `CCOC(=O)c1nn(-c2ccccc2)c2c1CN(C(=O)CCS)CC2`, for which the percent labeling is 7.9% under setting [2]; 18% under setting [3]; 11.8% under setting [4]; 11.4% under setting [5]; 22.4% under setting [6]; 22.8% under setting [7]. Besides, the percent labeling reads like this: under setting [9], 8.6%; under setting [10], 12.3%; under setting [11], 8.6%; under setting [12], 49.3%.
The molecule `O=C(CCS)NCC12CCC(CO)(CC1)OC2` yielded a percent labeling under setting [2] of 6.2%; a percent labeling under setting [3] of 26.9%; a percent labeling under setting [4] of 31.9%; a percent labeling under setting [5] of 26.1%; a percent labeling under setting [6] of 28.4%; a percent labeling under setting [7] of 9.2%. In addition, the percent labeling by setting is: under setting [9], 16.7%; under setting [10], 29.5%; under setting [11], 34.4%; under setting [12], 41.6%.
